# Out of some 370,000 compounds screened, about 150 (0.041%) were called active. Inconclusive means that the source gave no clear call. Such entries were picked first, then a sample of the others. Calls come from the whole dose curve; as a rule, active = well fitted inhibition curve with a large enough effect; inconclusive = small, poorly fitted or top-dose-only effect; inactive = flat fitted curve, though single readings scatter. No potency is given beside an inconclusive call; the fits are too rough.
# Target: Beta-lactamase (Escherichia coli (strain K12)) (UniProt P00811)
# Assay: qHTS Inhibitors of AmpC Beta-Lactamase (assay with detergent); note: nearly all actives have a fitted effect of over 25% in size
# Settings: AmpC hydrolysis of nitrocefin, absorbance 480 nm, 0.01% Triton; series mostly up to 114 µM
# Procedure, shortened: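 20 mM phosphate pH 7.0 + 0.01% (detergent screen) or 0.0001% Triton X-100; 5.3 nM AmpC reagent; cpd preinc 15 min RT; nitrocefin (800 uM stock) to start; A480 q20 s × 4 min; Activity was normalised to no-enzyme and no-compound control wells.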
# Potency is the fitted concentration of half-maximal effect; tags give direction and shape of the fitted curve.
# Chain of UniProt P00811 (P00811 whole entry, looked up): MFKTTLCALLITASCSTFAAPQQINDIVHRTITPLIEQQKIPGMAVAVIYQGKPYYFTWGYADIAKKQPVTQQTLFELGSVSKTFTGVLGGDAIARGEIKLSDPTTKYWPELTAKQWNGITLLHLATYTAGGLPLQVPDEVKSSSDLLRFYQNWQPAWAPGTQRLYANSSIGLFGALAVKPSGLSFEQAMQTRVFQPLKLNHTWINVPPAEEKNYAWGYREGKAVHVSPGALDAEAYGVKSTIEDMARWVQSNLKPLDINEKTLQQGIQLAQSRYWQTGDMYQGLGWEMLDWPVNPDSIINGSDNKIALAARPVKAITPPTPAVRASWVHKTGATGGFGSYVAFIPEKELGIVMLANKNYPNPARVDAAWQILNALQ
row,SMILES,Potency
1,COC(=O)c1ccc(CNC(=O)C2CCC(=O)N(Cc3ccccn3)C2)cc1 (centres undefined),"inconclusive [inhibitor, full curve, poor fit]"
2,CCCN1CCN(CCNC(=O)Nc2cc(OC)cc(OC)c2)CC1,inactive
3,CN(C)c1nccc(Nc2ccccc2)c1C#N,"inconclusive [inhibitor, full curve, poor fit]"
4,CCOC(=O)C(C)Sc1nc(-c2cccs2)ccc1C#N (centres undefined),inactive
5,Cc1nc2sc(-c3ccccc3)nn2c(=O)c1Br,"inconclusive [inhibitor, full curve, poor fit]"
6,O=C(NCCOc1ccccc1)C1CCCCC1,"inconclusive [inhibitor, full curve]"
7,COc1cc(CNCCN(C)C)c(Br)cc1OCC(=O)NCc1ccccc1,"inconclusive [inhibitor, single point]"
8,OCc1cn(-c2ccc(Cl)cc2)nn1,"inconclusive [inhibitor, full curve, poor fit]"
9,CCOC(=O)[C@H]1[C@H]2COc3ccc(Br)cc3[C@@H]2N2C(=O)c3cc(OC)c(OC)cc3NC(=O)[C@@]12C,"inconclusive [inhibitor, full curve, poor fit]"
10,CCN(CC)c1ccc(NS(=O)(=O)c2ccc3c(c2)CCCN3C(C)=O)c(C)c1,inactive
11,O=C(CSc1n[nH]c(-c2cccnc2)n1)Nc1ccccc1[N+](=O)[O-],inactive
12,CCOC(=O)/C(=N\Nc1cccc(C(F)(F)F)c1)N(CCOC)CCOC,"inconclusive [inhibitor, single point]"
13,COc1ccc([N+](=O)[O-])cc1N=Cc1c(O)n(CCc2ccccc2)c(=O)n(C(C)C)c1=O,"inconclusive [inhibitor, partial curve, poor fit]"
14,CC(=O)Nc1ccc(NC(=O)CSC2=NS(=O)(=O)c3ccccc3N2)cc1,"inconclusive [inhibitor, single point]"
15,Cc1nn(CC(=O)Nc2nccs2)c(C)c1[N+](=O)[O-],"inconclusive [inhibitor, single point]"
16,O=C(COc1cc2oc(=O)c3c(c2cc1Cl)CCCC3)N1C[C@H]2C[C@@H](C1)c1cccc(=O)n1C2,inactive
17,CCOC(=O)C1(Cc2ccccc2C)CCCN(C(=O)c2sccc2C)C1 (centres undefined),inactive
18,O=C1Nc2cc(Cl)c(Cl)cc2N(O)N1c1cc(Cl)cc(Cl)c1,"inconclusive [inhibitor, full curve, poor fit]"
19,S=c1[nH]nc(-c2cc3ccccc3o2)n1Cc1ccccc1,"inconclusive [inhibitor, partial curve, poor fit]"
20,COCCNC(=O)c1noc2c1CCc1cc(OC)ccc1-2,"inconclusive [inhibitor, full curve, poor fit]"
21,O=C(N/N=C/C=C\c1ccco1)c1cccnc1,inactive
22,COC(=O)c1ccc(CN(c2ccc(C(=O)O)c(O)c2)S(=O)(=O)c2ccc(Cl)c([N+](=O)[O-])c2)cc1,inactive
23,COc1ccc(CCNc2oc(-c3ccc(OC)c(OC)c3)nc2C#N)cc1,"inconclusive [inhibitor, partial curve, poor fit]"

row,SMILES,Potency
1,Cc1ccc2nc(NC(=O)c3ccccn3)sc2c1,inactive
2,O=C(C1CCN(S(=O)(=O)c2cccc3cccnc23)CC1)N1CCCC1,"inconclusive [inhibitor, partial curve]"
3,CCOc1ccc(CCNC(=O)c2cnccn2)cc1OCC,"inconclusive [inhibitor, partial curve]"
4,Cc1ccccc1NC(=O)C1c2cccc[n+]2CC(=O)N1c1c(C)cccc1C (centres undefined),"inconclusive [inhibitor, full curve, poor fit]"
5,Cc1noc(C)c1S(=O)(=O)Nc1ccc(C(C)C)cc1,"inconclusive [inhibitor, full curve, poor fit]"
6,CC(=O)c1cnc(N2CCCCC2)nc1C,"inconclusive [inhibitor, single point]"
7,O=C(Nc1ccccc1-c1ccccc1)c1ccccc1Br,"inconclusive [inhibitor, partial curve, poor fit]"
8,C=CCSc1nnc(CNC(=O)c2ccccc2C)n1C(C)C,"inconclusive [inhibitor, single point]"
9,COc1cc2ccccc2cc1C(=O)N(CCN(C)C)c1nc2ccc(Br)cc2s1,"inconclusive [inhibitor, partial curve]"
10,CC(C)(C)NS(=O)(=O)c1ccc2[nH]c3c(c2c1)CCCCC3,"inconclusive [inhibitor, single point]"
11,Cc1nc2cc(N3CCCCC3)c(NC(=O)c3cccnc3)cc2c(=O)n1Cc1ccccc1,"inconclusive [inhibitor, full curve, poor fit]"
12,O=C(CN1C(=O)NC2(CCCC2)C1=O)OCCOc1ccc(Cl)cc1Cl,"inconclusive [inhibitor, partial curve, poor fit]"
13,CCCOC(=O)/C(=C\C=C\c1ccccc1)NC(=O)c1ccccc1,inactive
14,COc1ccc(CCNC(=O)c2cc(Sc3cccc(Cl)c3)nc3ccccc23)cc1OC,inactive
15,CC(=O)Nc1ccc2c(c1)CCC2=O,"inconclusive [inhibitor, full curve]"
16,Cc1nc2ccc(S(=O)(=O)NCC(=O)N3CCc4ccccc43)cc2s1,inactive
17,CCOC(=O)c1c(C)[nH]c(NC(=O)N2CCOCC2)c1C,"inconclusive [inhibitor, full curve, poor fit]"
18,CC1(C)CC(N2CN(C3CCCCC3)CC2=O)CC(C)(C)N1,"inconclusive [inhibitor, partial curve, poor fit]"
19,CCOc1ccc2nc(N3CCCC(C(=O)Nc4ccc(Br)c(C)c4)C3)sc2c1 (centres undefined),inactive
20,CCNc1nc(N)nc(Oc2ccc(OCCOc3ccccc3)nn2)n1,"inconclusive [inhibitor, full curve]"
21,COc1ccccc1C(C)NC(=O)c1cc(S(=O)(=O)N2CCCCC2)ccc1C (centres undefined),inactive
22,COc1ccccc1N1CCN(S(=O)(=O)c2ccc(F)c(C(=O)Nc3ccc(C)c(F)c3)c2)CC1,inactive
23,O=C(NCc1cccnc1)NC1CCCN1S(=O)(=O)c1ccc(Cl)cc1 (centres undefined),"inconclusive [inhibitor, full curve, poor fit]"

row,SMILES,Potency
1,C=CCn1c(SCC(=O)NCCCO)nc2sc3c(c2c1=O)CCC3,"inconclusive [inhibitor, partial curve, poor fit]"
2,Cc1cccc(OCC(=O)NNC(=O)c2ccc([N+](=O)[O-])cc2)c1,"inconclusive [inhibitor, partial curve, poor fit]"
3,COc1ccc(NC(=O)CSc2ccc3nnc(CCNC(=O)c4ccccc4)n3n2)cc1,"inconclusive [inhibitor, single point]"
4,COc1ccc(CNC(=O)C2CCCN(S(=O)(=O)c3ccc4c(c3)CCCN4C(C)=O)C2)cc1 (centres undefined),inactive
5,CC1=CC(C)(C)Nc2ccc(OC(=O)C(Cc3ccccc3)N3C(=O)c4ccccc4C3=O)cc21 (centres undefined),inactive
6,Cn1nnnc1SCC(=O)c1c(N)n(C2CC2)c(=O)[nH]c1=O,"inconclusive [inhibitor, full curve, poor fit]"
7,O=C(CSC(=S)N1CCOCC1)c1ccccc1,"inconclusive [inhibitor, full curve, poor fit]"
8,O=C(CC12CC3CC(CC(C3)C1)C2)NCC(=O)OCc1cc(=O)oc2ccc3ccccc3c12,inactive
9,O=C(Cn1cc(SCc2cccc(Cl)c2)c2ccccc21)N1CCOCC1,inactive
10,CCN1CCC(N2CCN(c3ccc(Cl)cc3)CC2)CC1,inactive
11,CCc1c(O)nc(SCC(=O)NC(C)(C)C)n(-c2ccccc2)c1=O,"inconclusive [inhibitor, partial curve, poor fit]"
12,Cc1c(C(=O)NNC(=S)Nc2ccc(S(N)(=O)=O)cc2)oc2ccccc12,"inconclusive [inhibitor, full curve, poor fit]"
13,CCOC1OC2C(CO)OC(n3cnc4c(N)ncnc43)C2O1 (centres undefined),"inconclusive [inhibitor, full curve, poor fit]"
14,COc1ccc(-c2nc3cc(NC(=O)c4ccc5c(c4)OCO5)ccc3o2)cc1,"inconclusive [inhibitor, full curve, poor fit]"
15,Cc1cccc(NC(=O)CCn2nc(C)cc2C)c1,"inconclusive [inhibitor, full curve, poor fit]"
16,COC(=O)c1cccc(NC(=O)CCCOc2ccccc2)c1,inactive
17,CN(C)S(=O)(=O)c1cccc(NC(=O)CNCC2CCCCC2)c1,inactive
18,COc1ccc(C(=O)Nc2nc3ccc(S(C)(=O)=O)cc3s2)cc1,inactive
19,N=C1S/C(=C\c2cccc3ccccc23)C(=O)N1c1ccc(F)cc1,"inconclusive [inhibitor, single point]"
20,CCOc1ccc(C(=O)CSc2nnc(N)s2)cc1,"inconclusive [inhibitor, full curve, poor fit]"
21,Cc1ccc(NC(=O)Cn2c(=O)n(Cc3ccco3)c(=O)c3ccccc32)cc1,inactive
22,CC(C)Sc1nc2c(cnn2-c2ccccc2)c(=O)[nH]1,"inconclusive [inhibitor, partial curve, poor fit]"
23,CCC(=O)NC1=C(Cl)C(=O)C(NC(=O)CC)=C(Cl)C1=O,"inconclusive [inhibitor, partial curve]"

# From PubChem BioAssay AID485294 (National Center for Advancing Translational Sciences (NCATS), 2010)
